Among all 110,000 compounds or so, about 230 (0.21%) showed an effect of 50% or more. Some of the results follow.
Molecular target: DPAP1 (Plasmodium falciparum, UniProt Q8IIJ9)
Assay: primary screen, percent inhibition; read by cleavage of a fluorogenic dipeptide substrate; higher = more effect of the substance
Set-up: species or system P. falciparum D10 trophozoite lysates; single well
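Also: 30 min substrate incubation versus DMSO and 10 µM JCP410 controls.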

Sequence of DPAP1 (Q8IIJ9 whole entry, looked up): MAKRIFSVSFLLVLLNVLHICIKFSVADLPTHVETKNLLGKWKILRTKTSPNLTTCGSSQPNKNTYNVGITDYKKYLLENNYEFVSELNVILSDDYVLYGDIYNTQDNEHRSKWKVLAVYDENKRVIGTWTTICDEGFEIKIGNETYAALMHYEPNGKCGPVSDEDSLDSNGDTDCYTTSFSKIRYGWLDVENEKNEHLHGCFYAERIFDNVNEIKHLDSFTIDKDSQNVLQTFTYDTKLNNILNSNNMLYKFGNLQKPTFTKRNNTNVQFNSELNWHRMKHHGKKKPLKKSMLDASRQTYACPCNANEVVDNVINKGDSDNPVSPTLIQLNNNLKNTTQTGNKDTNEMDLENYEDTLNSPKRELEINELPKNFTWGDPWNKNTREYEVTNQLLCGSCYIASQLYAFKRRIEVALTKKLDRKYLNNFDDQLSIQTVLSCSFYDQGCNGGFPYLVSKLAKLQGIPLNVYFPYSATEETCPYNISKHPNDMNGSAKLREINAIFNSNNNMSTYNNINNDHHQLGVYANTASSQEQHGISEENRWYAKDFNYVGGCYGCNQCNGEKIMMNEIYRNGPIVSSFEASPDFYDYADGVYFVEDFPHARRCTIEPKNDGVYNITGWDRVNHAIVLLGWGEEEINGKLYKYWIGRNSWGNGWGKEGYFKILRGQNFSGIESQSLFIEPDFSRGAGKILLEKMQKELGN

Structure (SMILES)	% Inhibition @ 10 uM
CC12CC(c3cc(Br)cc(Br)c3O1)C(C(=O)c1ccccc1)C(=O)N2 (stereo not drawn)	-3.1%
COC(=O)c1ccccc1NC(c1ccccc1)c1ccc2cccnc2c1O (stereo not drawn)	-1.69%
N#Cc1c(S)nc2c(c1-c1ccc([N+](=O)[O-])cc1)CCCC2	7.13%
O=C(CSc1nc2c(sc3ccccc32)c(=O)n1CCO)NCc1ccco1	7.41%
c1csc(-c2nn3c(Cn4cnc5ccccc54)nnc3s2)c1	2.89%
CN1C(=O)/C(=C/c2ccc(Cl)cc2)S/C1=N/c1cccc(C(=O)O)c1	1.57%
Cc1ccc(S(=O)(=O)NCCC2=CCCCC2)cc1	0.413%
O=C1N=C(N2CCOCC2)S/C1=C1\C(=O)Nc2ccc(Br)cc21	-2.29%
C=CCOc1ccc(C2c3c(oc4ccccc4c3=O)C(=O)N2c2nncs2)cc1 (stereo not drawn)	2.1%
C/C(=N\O)c1ccc(-c2ccccc2)cc1	-4.61%
Cc1ccc(-c2cc(C(=O)N3CC=C(c4ccccc4)CC3)[nH]n2)cc1C	-3.88%
O=C(/C=C/c1ccc(Cl)cc1)NCCN1CCOCC1	-5.16%
O=C(NCc1ccccc1)c1cccc(S(=O)(=O)N2CCCCC2)c1	-5.41%
CC[C@H](NC(=O)[C@H](Cc1nccn1Cc1ccccc1)NC(=O)c1ccccc1)C(=O)c1nc2ccccc2o1	-3.49%
CC1=C(c2ccc(C)cc2)S(=O)(=O)N=C1NC1CCCc2ccccc21 (stereo not drawn)	-1.08%
CCOc1ccc(-c2cc(NC(=O)c3ccc(OC)c(OC)c3)c(C(=O)O)s2)cc1	2.84%
CCCCNC(=O)c1cc(-c2cccnc2)nc2ccc(S(=O)(=O)N3CCCCCC3)cc12	0.718%
CC(C)Oc1ccc(C(CC(=O)N2CCOCC2)c2ccccc2)cc1 (stereo not drawn)	3.81%
CCn1c(=O)c2sccc2n2c(CCCC(=O)NCCCOC(C)C)nnc12	2.71%
CCOC(=O)C1=C(C)OC(N)=C(C#N)C1c1cccc(O)c1 (stereo not drawn)	4.01%
COc1cccc(C(=O)N(c2ccccc2)C2CC(C)N(C(C)=O)c3ccccc32)c1 (stereo not drawn)	-0.318%
CCCN1CCN(C(=O)NCc2noc3ccc(C)cc23)CC1	-6.47%
CCOC(=O)N1CCN(C(=O)c2ccc3nc(N4CCOCC4)sc3c2)CC1	-2.37%
CC[C@H](NC(=O)C(Cc1c[nH]c2cccc(C)c12)NC(=O)c1ccc(-c2ccccc2Cl)cc1)C(=O)c1nc2ccccc2o1 (stereo partly drawn)	-8.81%
O=c1c(-c2ccccc2)c(N(CCO)Cc2ccccc2)c1=O	-9.49%

Structure (SMILES)	% Inhibition @ 10 uM
COc1ccc(C(=O)c2c(C)n(C)c(=O)n(C)c2=O)cc1	-3.96%
COc1ccc(C(=O)NCCNC2=NS(=O)(=O)c3ccccc32)cc1	-1.4%
CC(C)(C)NC(=O)/C(=C\c1ccc(Br)cc1)NC(=O)c1cccs1	-0.759%
Cc1cc(C)c(S(=O)(=O)NCc2ccc(C(=O)NC3CCCC3)cc2)c(C)c1	1.69%
Nc1sc(-c2ccccc2)c(-c2ccccc2)c1C(=O)O	6.74%
CCOc1ccc(-c2csc(/C(C#N)=C/c3ccc(OC)cc3)n2)cc1	-0.771%
COc1ccc(-c2cc(C(=O)Nc3cnn(Cc4ccc(Cl)cc4Cl)c3)no2)cc1	7.44%
CNC(=O)c1cc2c(=O)n3ccccc3nc2n(CCc2ccccc2)c1=N	-5.14%
COc1ccc(C2Nc3ccccc3N=C3CC(C)(C)CC(O)=C32)cc1O (stereo not drawn)	-6.44%
O=C(CC1(O)C(=O)Nc2ccccc21)c1ccc(Br)cc1 (stereo not drawn)	6.31%
CCn1c2ccccc2c2cc(CNC(C)COC)ccc21 (stereo not drawn)	-5.16%
CCOc1ccc(/N=c2\scc(-c3ccc(OC)cc3)n2CCO)cc1	1.15%
O=C(O)C1CCCCC1C(=O)N1CCOCC1 (stereo not drawn)	-2.7%
CCn1c(C)c(CCC(=O)NC(C)CCc2ccco2)c(=O)n2nc(-c3ccccc3OC)cc12 (stereo not drawn)	-6.09%
CSC1=N/C(=C\c2ccc(C)o2)C(=O)S1	4.18%
CCc1nnc2sc(-c3cccnc3)nn12	-4.67%
Cc1sc(NC(=O)C2CCCCC2C(=O)O)nc1-c1ccccc1 (stereo not drawn)	-0.795%
COCCNC(=O)C(NC(=O)c1ccc(C23CC4CC(CC(C4)C2)C3)cc1)C(C)C (stereo not drawn)	-9.05%
CC/N=c1\c(NS(=O)(=O)c2ccc(Cl)cc2)c(O)oc2ccccc12	-1.68%
Nc1nc(O)cc(-c2cccc(F)c2)n1	-10.7%
COc1ccc(CNC(=O)CCNS(=O)(=O)c2ccc(Cl)cc2)cc1	4.61%
C=C(C)CN(CC)Cc1ccc(C(=O)OC)cc1	-4.14%
CCc1c(C)nc2c(C)cccc2c1O	-6.83%
Cc1ccc(Cl)cc1NC(=O)c1ccc(Br)cc1	-1.48%
CCc1ccc(S(=O)(=O)c2nnn3c2nc(N(CC)CC)c2sccc23)cc1	-2.55%

Structure (SMILES)	% Inhibition @ 10 uM
Cc1ccc2oc(C(=O)NCCc3ccc(S(N)(=O)=O)cc3)cc(=O)c2c1	0.248%
CCOc1ccc(C(=O)Nc2ccc(C(C)=O)cc2)cc1	0.0265%
Cc1ccc(S(=O)(=O)N2CCN(C(=O)N3CCOCC3)CC2)cc1	1.91%
COc1ccc(-c2nc(S)c3c(n2)Oc2ccccc2C3)cc1O	32.1%
Cc1ccccc1NC(=O)c1ccc(C)c(S(=O)(=O)Nc2ccc(C(=O)O)cc2)c1	-0.661%
C/C=C/c1ccccc1OCc1ccc(C(=O)OC)o1	0.146%
O=C(CN1C(=O)c2cccc3cccc(c23)C1=O)N1CCN(Cc2ccc3c(c2)OCO3)CC1	4.03%
COc1cc(C(=O)N2CCN(C(=O)c3c(OC)cccc3OC)CC2)cc(OC)c1OC	-6.27%
CCCCN(C(=O)/C=C/c1ccccc1)C1=CC2CCC(C1)N2C (stereo not drawn)	-0.436%
Cc1ccc(C)n1-c1nnc(N2CCC(C(=O)NC(C)c3ccccc3)CC2)s1 (stereo not drawn)	1.15%
COc1cc2nc(S)n3nc(CCn4c(C)nc5ccccc54)nc3c2cc1OC	6.08%
COc1ccc(OC)c(-c2c(C#N)c(N)nc3c2c(=O)nc2sccn23)c1	16.6%
Cc1ccc(CC2SC(Nc3ccccn3)=NC2=O)cc1 (stereo not drawn)	-0.48%
NC1=NC(c2ccc(Cl)cc2)n2c(nc3ccccc32)N1 (stereo not drawn)	-3.43%
O=c1/c(=C/c2ccco2)sc2nncn12	5.55%
CN1CCN(CCn2c(-c3ccc(Br)cc3)cn3c4ccccc4nc23)CC1	3.1%
CN1CCCN(Cc2ccc(-c3ccccc3)cc2)CC1	2.47%
Cc1nc(CN2CCC/C2=N\C#N)n(-c2ccccc2)n1	16.1%
COc1ccc(OC)c(C2C3=C(O)CCCC3=NC(C)=C2C(=O)Nc2ccccn2)c1 (stereo not drawn)	-8.82%
O=C(Cc1c(O)nc2ccccc2c1O)NC1CCCCCCC1	3.45%
CCOC(=O)c1sc(NC(N)=O)c(C#N)c1C	-3.48%
O=C1CC(c2ccc3c(c2)OCO3)c2c(n[nH]c2-c2ccc(Cl)cc2)N1 (stereo not drawn)	0.0719%
C=CCOc1ccc(/C=C2/C=C(c3ccc(C)cc3)OC2=O)cc1	6.58%
CC1CC(=O)c2c(oc3ccccc3c2=O)C1 (stereo not drawn)	2.36%
Brc1ccc(-c2nnc(-c3ccccc3)o2)cc1	-5.23%

Structure (SMILES)	% Inhibition @ 10 uM
O=C1C(Cl)=C(N2CCN(C(=O)c3ccc(F)cc3)CC2)C(=O)c2ccccc21	0.147%
CCOC(=O)N1CCN(C(=O)CSc2nnc(CNC(=O)COc3ccc(Cl)cc3)o2)CC1	-3.39%
CCOC(=O)c1[nH]c(C)c(C(=O)NCc2cccnc2)c1C	4.88%
COc1cc(CNc2ccccc2)ccc1OCC(=O)Nc1cccc(C)c1	1.05%
O=C(CCCn1sc2ccccc2c1=O)N1CCN(c2ccccn2)CC1	4.26%
CCOC(=O)c1c(-c2ccc(OCC)cc2)csc1NC(=O)C1CCCCC1C(=O)O (stereo not drawn)	-1.1%
CSc1ccc(CN2CCN(c3ccc(C(C)=O)cc3)CC2)cc1	2.26%
Cn1ncc(Br)c1C(=O)NC1C2CC3CC(C2)CC1C3 (stereo not drawn)	-2.28%
O=C(NCc1cccc(Cl)c1)C1CCCN(c2nnc(-n3cccc3)s2)C1 (stereo not drawn)	-4.04%
O=C(Nc1nnc(-c2ccccc2)s1)C1CCCCC1	1.24%
O=C1OC(c2ccccc2F)=N/C1=C\c1cccs1	-8.36%
CN(CCCNS(=O)(=O)c1ccc(-c2cc(C(F)(F)F)no2)s1)C1CCCCC1	0.359%
Cc1cc(NC(=O)CSc2nc3ncccc3c(=O)n2Cc2ccccc2)[nH]n1	-3.44%
O=C(Nc1ccc(-c2csc(-c3ccccc3)n2)cc1)c1cccnc1	3.17%
CN1CCc2c(sc(N)c2C#N)C1	0.238%
COc1ccc(OC)c2c(N)c(C#N)c(C(F)(F)C(F)(F)F)nc12	3.47%
CNC(=O)c1ccc(Cn2c(SCc3ccccc3)nc3cccnc32)cc1	0.693%
COc1cc(CCNc2cnnc3c(Cl)cccc23)cc(OC)c1	-5.76%
COc1cc(F)c(C[C@H](NC(=O)c2ccc(-c3ccccc3Cl)cc2)C(=O)NCC#N)c(F)c1	-0.207%
CCOc1ccc(NC(=O)c2ccc3c(c2N)C(=O)c2ccccc2C3=O)cc1	-0.693%
CCCN1CCC(NCc2ccc(Cl)cc2Cl)CC1	1.88%
COc1ccc(OC)c(NC(=O)CC2NCCNC2=O)c1 (stereo not drawn)	0.907%
CC(c1ccccc1)C(CC(=O)O)C(=O)NCc1ccccc1 (stereo not drawn)	4.41%
COc1cc(NS(=O)(=O)c2ccc(NC(=O)Nc3ccc(Cl)cc3)cc2)ncn1	0.431%
